Results: ChEMBL document CHEMBL1201862, “PubChem BioAssay data set” (2004)
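Grown in 96-well plates, cells were treated for 48 hours with each compound at five concentrations. Insufficient inhibition: endpoint recorded as highest concentration tested. GI50 = concentration required for 50% inhibition of growth.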 Calls of active or inactive are those of the source. No stated cut-off is given here; in the data, active = GI50 up to about 1.1 µM and inactive = higher.

Each molecule was assayed on NCI-H322M (assay: growth of human tumour cells (NCI), 48 h).

SMILES	GI50
O=C1Nc2cc(Cl)ccc2N=CC1NC(=O)C(c1ccccc1)c1ccccc1Cl (centres undefined)	inactive: > 100 µM
CC(ON(C(c1ccccc1)C(C)C)C(C)(C)C)c1ccccc1 (centres undefined)	inactive: 23.2 µM
CC(C)(Br)C(=O)/C=C/c1ccccc1	inactive: 20 µM
CC1=N[C@](C)(C2CC3C=CC2C3=O)COC1=O (some centres undefined)	inactive: > 100 µM
O=C(O)CNC(=O)c1c2ccccc2nc2ccccc12	inactive: > 100 µM
COc1ccc2oc(=N)c(C(=O)NCc3ccccc3)cc2c1	inactive: 48.4 µM
CC(C)(C)N(Cc1ccccc1)C(=O)/C=C\[S+]([O-])c1ccccc1 (centres undefined)	inactive: 13.7 µM
O/N=C1\CSc2ccccc2C1	inactive: > 100 µM
COc1ccc(/C(=C/n2ccnc2)C(O)c2ccc(OC)c(OC)c2)cc1OC (centres undefined)	inactive: > 100 µM
COc1ccc2oc(=N)c(C(=O)Nc3cccc4ccccc34)cc2c1	inactive: 56.8 µM
COc1ccc2nc3ccc(OC)cc3c(SCc3ccccc3)c2c1	inactive: > 35.7 µM
CC1(CO)C(=O)OC12CCCCC2 (centres undefined)	inactive: > 100 µM
CCOC(=O)C1(C/C=C\CBr)CCCCCCCCCCC1=O (centres undefined)	inactive: 17.3 µM
COC(=O)C12OC(C)(C(CC(=O)OC(C)(C)C)C1=O)C1C(=O)N(c3ccccc3)C(=O)C12 (centres undefined)	inactive: > 100 µM
CCC(=O)C(CCN1CCC2(CCCc3ccccc32)CC1)(c1ccccc1)c1ccccc1	inactive: 6.67 µM
CSc1nc(C#N)c(/N=C\N(C)C)n1C	inactive: > 100 µM
CCOc1cc2c(C(=O)CC)c(O)ccc2o1	inactive: > 100 µM
FC(F)(F)c1n[nH]c(SCc2ccc(Cl)cc2)n1	inactive: > 100 µM
Cc1nc(N)nc(CCC(=O)Nc2cccc(C(F)(F)F)c2)c1-c1ccc(Cl)cc1	inactive: > 100 µM
C=CCC(OCCOCC)c1cc(OCCOCC)ccc1OC (centres undefined)	inactive: > 100 µM
O=CNc1ccc2c(c1)C(=O)c1ccccc1-2	inactive: 64.6 µM
COC(=O)C1=CC(=O)OC1(OO)c1ccc(Br)cc1 (centres undefined)	inactive: > 100 µM
CCOC(=O)NC(NC1=NCCS1)(C(=O)OCC)C(F)(F)F (centres undefined)	inactive: > 100 µM

SMILES	GI50
COc1ccc2c(C(=O)O)cc3ccccc3c2c1OC	inactive: 35.1 µM
O=C1CS(=O)(=O)C(c2cccc(Oc3ccccc3)c2)N1c1cccc(Cl)c1 (centres undefined)	inactive: 44.7 µM
Nc1ccccc1S(=O)(=O)N(CC(=O)O)c1ccccc1	inactive: > 100 µM
COc1ccc(/N=N/c2ccc3oc(=O)c(C(=O)Nc4ccc(OC)cc4)cc3c2)cc1	inactive: 18.9 µM
CN(C(=O)c1ccc(Cl)cc1)C(=S)N1CCN(c2ccccc2)CC1	inactive: > 100 µM
O=c1[nH]c(=O)n(C2OC(CO)C(O)C2O)cc1OCC(F)(F)F (centres undefined)	inactive: > 100 µM
Cc1ccc2c(=O)c3cccc(CC(=O)O)c3[nH]c2c1C	inactive: > 100 µM
Cc1ccc(C2=Nc3c(N)nc(N)nc3NC(c3ccccc3)C2)cc1 (centres undefined)	inactive: 15.7 µM
Nc1cc(CO)cc(Nc2c3ccccc3nc3occc23)c1	inactive: > 100 µM
CCCC(=O)NC(Nc1ccc(S(=O)(=O)Nc2nc(C)cc(C)n2)cc1)(C(F)(F)F)C(F)(F)F	inactive: > 100 µM
C[S+](C)CC(=O)c1ccc2c(c1)Sc1ccccc1O2	inactive: 8.45 µM
CCOC(=O)C1=CN(Cc2ccccc2)C2ON=C(c3ccc(Cl)cc3)C2C1 (centres undefined)	inactive: > 58.2 µM
C[C@]12CC[C@@H]3c4ccc(OCC(=O)O)cc4CC[C@H]3[C@@H]1CCC2=O	inactive: > 100 µM
COC(=O)[C@H]1C[C@H]1NC(=O)C(CC(=O)OCc1ccccc1)NC(=O)OCc1ccccc1 (some centres undefined)	inactive: > 100 µM
CCC(C)C1NC(=O)C2CCCN2C(=O)C(CC2CO2)OC(=O)CCNC(=O)C(C)N(C)C(=O)C(C(C)C)N(C)C1=O (centres undefined)	inactive: 5.33 µM
ClCc1nnc2n1-c1ccc(Cl)cc1SC2	inactive: 11.6 µM
Brc1cccc(Nc2ncnc3sc4c(c23)CCC2(C4)OCCO2)c1	inactive: 8.87 µM
Cc1sc2nc(-c3cccc([N+](=O)[O-])c3)c(/C=N/N=C(N)N)n2c1C	inactive: 1.57 µM
c1ccc(CC2(c3cc4ccccc4[nH]3)OCCO2)nc1	inactive: > 100 µM
[N-]=[N+]=Nc1ncnc2c1sc(=S)n2-c1ccccc1	inactive: > 100 µM
O=c1/c(=C/c2ccccc2F)sc2nc3ccccc3n12	inactive: > 100 µM
CC1=C(C#N)C(=O)CC(c2ccc(Cl)cc2)N(C)N1 (centres undefined)	inactive: > 100 µM
O=C(NCCN1CCOCC1)c1cn2c(ccc3sc4ccccc4c(=O)c32)n1	inactive: 8.11 µM

SMILES	GI50
CC(C)C[C@H](NC(=O)[C@H](CCc1ccccc1)NC(=O)c1ccc2ccccc2n1)B(O)O	inactive: 1.99 µM
CC1=C(C(=O)NC(C)(C)C)CC(C(=O)NC(C)(C)C)C(C)N1 (centres undefined)	inactive: > 100 µM
Nc1n[nH]c2nc3ccc(C(F)(F)F)cc3nc12	inactive: 31.8 µM
COc1ccc(Nc2nc(N)c(C(=O)c3c[nH]c4ccccc34)s2)cc1	inactive: 1.91 µM
Cn1c(=O)[nH]c2sc3c(c2c1=N)CCCC3	inactive: > 75 µM
CCOc1ccc(/N=C/c2cccc3cccnc23)cc1	inactive: > 100 µM
CCCCCCCCCCCC(=O)OCC1OC(OC)C(NC(=O)N(CCCl)N=O)C(O)C1O (centres undefined)	inactive: 13.8 µM
O=c1[nH]c(=O)n(C2OC(CO)C(O)C2O)c2ncc(-c3ccc(-c4ccccc4)cc3)nc12 (centres undefined)	inactive: > 20 µM
Oc1cc(-c2ccc(Cl)cc2)cn2c1nc1ccccc12	inactive: 30.3 µM
COc1cc(/C=C2\CC3C4CC[C@H]5C[C@@H](O)CC[C@]5(C)C4CC[C@]3(C)C2=O)cc(OC)c1OC (some centres undefined)	inactive: 41.2 µM
CSc1nc(NC2OCC(OC(C)=O)C(OC(C)=O)C2OC(C)=O)c(/N=C(\C)C(C)=O)c(=O)[nH]1 (centres undefined)	inactive: > 100 µM
O=[N+]([O-])c1cc(-c2nc(-c3ccccc3)c(-c3ccccc3)[nH]2)c(O)c([N+](=O)[O-])c1	inactive: 20.6 µM
CCN(CC)CCO/N=C1\CC[C@H]2[C@@H]3CCc4cc(OC)ccc4[C@H]3CC[C@]12C	inactive: 2.63 µM
CC(C)(C)OC(=O)C#CC[C@H]1CCCC1/C=C/C(O)=C1/C(=O)NC(CCCNC(=O)OC(C)(C)C)C1=O (some centres undefined)	inactive: 87.9 µM
C/C(=N/O)c1cccc(Nc2nc3ccc(Cl)cc3c3[nH]c4ccccc4c23)c1	active: 0.769 µM
COc1ccc2c(c1)c(Cc1c(C)n(C)c3ccc(OC)cc13)c(C)n2C	inactive: > 100 µM
N#C/C(=C\Nc1ccccn1)C(=O)C1CC1	inactive: > 100 µM
COC(=O)C1CCC(C)CC1=O (centres undefined)	inactive: > 100 µM
CN(C)c1ccc(/C=C/c2ccc(S(N)(=O)=O)cc2)cc1	inactive: 17.3 µM
Cc1nc2ccccc2nc1NS(=O)(=O)c1ccc(N)cc1	inactive: > 100 µM
Oc1c(Cl)cc2cc1-c1cc(cc(Cl)c1O)CCc1c(cc(Cl)c(O)c1Cl)-c1cc(Cl)c(c(Cl)c1O)/C=C\2	inactive: 8.18 µM
O=C(CCc1ccc(O)c(O)c1)NCCc1cc(O)c(O)c(O)c1	inactive: 32.1 µM
Cc1cc2nc3c(N)nn(CCN(C)C)c3nc2cc1C	inactive: 43.9 µM
